In the supplement of paper PMC3334620:
The full ranking holds about 33,000 sequences; the median of “E-score (-0.5 to 0.5)” is about -0.013, and the highest 2% start at about 0.3. The list shows a part of the results.

target: T1, Msn1 (UniProt P22148); assay: PBM E-score (8-mer binding enrichment) (E-score (-0.5 to 0.5)); higher = stronger / more preferred TF binding; most listed sequences are background and not binding sites; details: protein concentration: 200 nM; construct: GST-full length
T1 sequence: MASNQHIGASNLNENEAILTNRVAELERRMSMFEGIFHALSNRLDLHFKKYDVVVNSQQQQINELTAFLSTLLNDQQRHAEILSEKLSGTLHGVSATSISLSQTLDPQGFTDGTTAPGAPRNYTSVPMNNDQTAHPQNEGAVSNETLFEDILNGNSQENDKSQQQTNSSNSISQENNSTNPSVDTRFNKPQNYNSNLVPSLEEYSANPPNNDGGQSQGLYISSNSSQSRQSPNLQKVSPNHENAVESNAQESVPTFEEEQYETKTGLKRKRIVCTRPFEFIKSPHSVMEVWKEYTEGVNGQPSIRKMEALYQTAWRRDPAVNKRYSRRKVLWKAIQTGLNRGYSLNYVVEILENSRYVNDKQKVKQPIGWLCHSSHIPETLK
Outline: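 The E-score, a modified Wilcoxon-Mann-Whitney statistic, was computed by the Universal PBM Analysis Suite for every ungapped eight-base word pooled with its reverse complement. Scans behind it were normalised with masliner after bound GST-tagged yeast transcription factors were detected with fluorescent anti-GST. The proteins, at about 100-200 nM, had been applied to universal all-10-mer Agilent arrays made double-stranded by primer extension.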

Sequence	PBM E-score
ATATTTGG	0.132
CGATGGAC	0.194
AATTCAAC	0.192
GGGCAGAC	-0.0606
CACCGGCC	-0.245
CTCACTGA	-0.173
AATCGGCA	0.0513
CAAAAGAG	-0.051
GGCAGTGA	-0.193
ACTTTCGA	0.133
GCGTACGC	-0.0278
AAAAGTTA	0.206
AAACGGTC	-0.0164
CCTATGGC	-0.0988
AGAATGGG	-0.054
CTCCTTGC	-0.102
GGCCGAAA	0.242
AACGAAGA	0.0745
AAAACGTG	-0.0168
AAGATCGG	-0.00179
GCGGTAAC	-0.0609
GCCGCGCA	-0.136
ACTCAGGA	-0.0577
GGCCGCAC	-0.262
AATCCCGT	0.139

Sequence	PBM E-score
TCGTAACA	0.0979
GATGTAAA	0.0907
AGGATCTA	-0.109
GGAAAAGA	-0.106
ATTACGGA	0.138
CACTAAAA	0.0839
CGTTAAAC	0.113
CCCTTAGC	-0.312
AGAGGTAA	-0.0169
GATCCGAA	0.206
TATGATCA	0.17
AGGGAAAC	-0.213
ATGGAACA	-0.009
GCAGGCTA	-0.182
ACGTGGGC	0.025
CTGCCGGA	0.0709
CACCTTGG	-0.0346
GTGTGGCA	-0.221
ATCTTCAG	0.1
ATTTCCGG	0.252
AAATTGGT	0.104
ATCTGTCA	0.159
AACCGAAT	0.0779
CTCGATTC	0.0953
GCAAGTAA	-0.0526

Sequence	PBM E-score
ACTGAGAC	0.189
ATGGCTTC	-0.14
ATTACGCC	-0.138
CGGGTGGA	-0.061
TCGGTTAA	0.176
AAATATCC	0.231
ACGCCGAC	-0.00489
CTGCGAGC	0.0527
ATGCCGAG	0.112
CCGGCTCA	-0.0352
ACAGACTA	-0.00053
ACCAGAAG	-0.069
TGGTTACA	-0.00282
ATACCTTC	-0.0629
CAGGCCGC	-0.144
GTAAATTA	0.0144
ACCTTCAG	-0.115
ATGCAATC	-0.00781
ATTCCAAT	0.0648
AAGGCGCG	-0.00694
CACACGAA	-0.0438
CTTCTTTA	0.034
AAACCCGC	0.117
ATGGACTA	0.275
CGTATGAA	0.117

Sequence	PBM E-score
ACTAAGCC	-0.0193
CCATATCG	-0.0479
TAGATTGA	0.0299
ACCCTTCA	-0.25
CCTTATAG	-0.0228
TCTCCCCA	-0.287
CAATAACC	0.192
ATGCCGGA	0.108
TAAGGGTA	-0.155
GGCCGGTA	-0.0553
GAAACAGA	0.116
TACCCACA	-0.0189
CTGCCGGC	-0.0895
GTGGAACA	0.0457
CAAGCGGG	-0.124
AACTACTT	0.00311
GGGGTCAC	-0.223
AGAGGAGA	-0.128
CAACGAAC	0.149
AGAAATTA	0.25
CACAGGTA	0.0913
CTACCTAC	-0.0857
CTGGAAAA	-0.0134
GGGTCCAC	-0.0921
AACTCGGC	0.138

Sequence	PBM E-score
ACTGCAGA	0.00161
CTGCGGAC	0.0915
CTAGTTAA	0.165
ACCACAGC	0.00081
TGGAGCCA	-0.0997
CCTCGTCG	-0.166
CAGGGGTC	-0.178
AGATAGGC	-0.232
TACTAAGA	0.236
CGAGTCCG	0.129
AAGACTGG	-0.067
CGACAGAG	-0.144
AGAAGGTC	-0.0548
GGAGCAGA	-0.173
AGAAGTAT	0.0725
CGCGTAGA	0.0693
ACCGAAGG	-0.0834
GAGGTGGA	-0.0847
GCCGAGGA	0.195
AGCACGGG	-0.276
CAATAGAG	-0.125
ACGTGCCG	-0.00165
CATACCTA	-0.191
TCGTGACA	0.314
CCCCCGGG	-0.241

Sequence	PBM E-score
ACCGCCAG	-0.04
AAGTGACG	0.00399
GAAAGTAA	0.155
AAGAGCAA	-0.225
ACATCGGT	0.155
CGCTAAAA	-0.154
GTGCGCAC	0.0927
CCCATAGA	-0.212
AATGACAT	0.42
CATTGAAC	-0.0322
ACCTCAAG	-0.0697
TAAAGTAA	0.13
GTTCTATA	0.048
AGATCAGG	-0.0254
CTTGACCC	-0.147
AGCGTCAC	-0.0789
CTTCATGC	-0.141
ATGATTCC	0.0976
GAGTCGAA	-0.0105
TATGCACA	0.00087
GGCGCGTA	-0.0946
GATATTCC	0.0975
CGCATATA	0.0294
CCCCCCTA	-0.341
TCCTAGGA	0.0899

Sequence	PBM E-score
ACTTTACC	0.11
TGGGATAA	0.0504
ATCGGTCC	-0.0513
CCTGATAG	-0.222
AGAGCTCG	0.006
GTCTCGGA	0.244
AGGCTTGC	-0.255
AGTCAAAA	0.0874
CTTCAGGA	0.0333
ACACTTCA	0.0896
CCAGCATA	-0.125
AGGAGAAC	-0.165
CGTTGTAC	0.173
ATGGAGTA	-0.109
ATCCAGCA	-0.118
GCGTATAC	-0.0134
GGTCAGCA	-0.107
CCGCATAC	0.0184
GACGCGGA	0.0749
CAACGTCG	-0.0696
ATCCCATG	-0.156
ATGTGCTC	0.0447
